# Measured values taken from PubChem BioAssay AID602332 (National Center for Advancing Translational Sciences (NCATS), 2012).
# The whole screen tested about 420,000 compounds, of which about 75 (0.02%) were called active. The shares of active, inactive and inconclusive entries below differ from those in the screen. Calls follow the shape of the dose curve; as a rule, active = well fitted activation curve with a large enough effect; inconclusive = small, poorly fitted or top-dose-only effect; inactive = no such curve, though single readings can be large or run the other way. Where the call is inconclusive, the potency comes from a doubtful curve fit.
# Test: qHTS for Inducers of the Endoplasmic Reticulum Stress Response (ERSR) in Human Glioma: qHTS; also: nearly all actives have a fitted effect of over 35% in size; as to activation: % of control where 0% means no effect
# Conditions: U87-MG GRP78 promoter luciferase reporter, 16 h; activation: active compounds read high
# Outline: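 ERSR induction read as luciferase luminescence (Bright-Glo, 10 min at room temperature) in stably transfected human U87-MG glioma cells exposed to compounds for 16 h, using GRP78 as sensor.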
# Potency is read from the fitted curve at half-maximal effect; tags tell the direction and shape of the fitted curve.
Structure (SMILES),Potency,activation
COC(=O)c1cc(=O)n(-c2ccccc2)c(=Nc2ccccc2)s1,"inconclusive: 15.8 µM [activator, single point]",–
Cc1ccc(C)c(N2CCN(C(=O)CCc3nc(-c4cccc(C(F)(F)F)c4)no3)CC2)c1,"inconclusive: 10 µM [activator, single point]",–
Cc1cc(=O)n2[nH]c(SCc3ccccc3)nc2n1,–,inactive: -0.845%
CN(C)CCNc1ccc(CO)c2sc3ccc(O)cc3c(=O)c12,"inconclusive: 44.7 µM [activator, partial curve, poor fit]",–
COC(=O)C1=C(C)NC(=O)/C1=C\c1ccc2c(c1)OCO2,–,inactive: 4.13%
O=C(CC1(O)C(=O)N(CCc2ccccc2)c2ccc(Br)cc21)c1ccc(F)cc1 (configuration not stated),–,inactive: 2.84%
CCOC(=O)C1CCCN(c2c(NCCCN(CC)c3cccc(C)c3)c(=O)c2=O)C1 (configuration not stated),"inconclusive: 50.1 µM [activator, single point]",–
Cc1cc(C)c2c(N)c3cccc(C)c3nc2n1,"inconclusive: 28.2 µM [activator, single point]",–
Cc1ccccc1NC(=O)Cn1nnc2ccccc21,"inconclusive: 28.2 µM [activator, single point]",–
Cc1ccc(C)c(N(CC(=O)NC(C)(C)C)C(=O)CCC(=O)Nc2nccs2)c1,"inconclusive: 28.2 µM [activator, single point]",–
Cc1ccc(NC(=O)CN(C)Cc2c(O)ccc3ccccc23)cc1,"inconclusive: 31.6 µM [activator, partial curve, poor fit]",–
Cc1cccc(NC(=O)NC2(C)CCS(=O)(=O)C2)c1 (configuration not stated),"inconclusive: 10 µM [activator, single point]",–
CN(C)S(=O)(=O)n1cc(/C=C(\NC(=O)c2ccccc2Cl)C(=O)NCCCn2ccnc2)c2ccccc21,"inconclusive: 28.2 µM [activator, single point]",–
COc1ccc(-n2c(C)nc3cc(C(=O)NCCN4CCOCC4)ccc32)cc1,–,inactive: -4.11%
Cc1cccc(OCC(=O)N2CCN(C(=O)COc3ccc(Cl)cc3)CC2)c1,"inconclusive: 44.7 µM [activator, partial curve, poor fit]",–
COc1cccc(-c2ccc3ncnc(NCc4ccccc4)c3c2)c1,–,inconclusive: 157% [activator]
O=C(/C=C/c1ccc(O)c(O)c1)O[C@@H]1C[C@](O)(C(=O)O)C[C@@H](O)[C@H]1O,"inconclusive: 63.1 µM [activator, single point]",–
CC(=O)Nc1ccc(NC(=O)Cc2sc(-c3cccnc3)nc2-c2ccc(C)cc2)cc1,"inconclusive: 12.6 µM [activator, single point]",–
CC(=O)c1ccccc1OCCOc1ncnc2sccc12,"inconclusive: 11.2 µM [activator, single point]",–
CCS(=O)(=O)c1nn2c(N)c(/C=C3/C=CC(=O)C(OC)=C3)c(=O)nc2s1,–,inactive: -3.53%
Cc1cccc(OCC(=O)N/N=C/C=C/c2ccco2)c1,"inconclusive: 44.7 µM [activator, single point]",–

Structure (SMILES),Potency,activation
CC(C)Oc1cccc(C2CC(=O)Nc3cc4c(cc32)OCO4)c1 (configuration not stated),–,inactive: -3.78%
Cc1ccc(C(C[N+](=O)[O-])c2c(-c3ccccc3O)[nH][nH]c2=O)cc1 (configuration not stated),"inconclusive: 10 µM [activator, single point]",–
COCCCN1C(=O)c2[nH]nc(-c3ccccc3O)c2C1c1ccc(OCc2ccccc2)cc1 (configuration not stated),"inconclusive: 39.8 µM [activator, partial curve]",–
CC(=O)Nc1ccc2c(c1)Cc1c-2cc(Cl)c(NC(C)=O)c1Cl,–,inactive: -3.31%
CSc1ccccc1OCc1cc(C(=O)NCc2cccc(C)n2)no1,"inconclusive: 2.24 µM [activator, full curve, poor fit]",–
Cc1ccc(-c2nn(CCC(=O)O)cc2/C=C\C(=O)c2ccc(Br)cc2)cc1,"inconclusive: 44.7 µM [activator, partial curve, poor fit]",–
COCCCNC(=O)CC(NS(=O)(=O)c1ccc(C)cc1)c1ccco1 (configuration not stated),–,inactive: 0.0318%
CC(=O)Nc1cc(-c2ccc(F)cc2)cn2c(-c3ccc(F)c(Cl)c3)cnc12,"inconclusive: 44.7 µM [activator, single point]",–
Cc1ccc(C2C(C#N)=C(N)Oc3cc4c(cc32)OCO4)cc1 (configuration not stated),"inconclusive: 50.1 µM [activator, single point]",–
O=C(OCC(=O)N1CCCCC1)c1cc(NS(=O)(=O)c2ccc(Cl)c([N+](=O)[O-])c2)ccc1O,"inconclusive: 28.2 µM [activator, partial curve]",–
COc1ccc(Nc2nc(N3CCCCC3)c3ccccc3n2)cc1,"inconclusive: 50.1 µM [activator, single point]",–
COc1ccc(N2C(=O)/C(=C\c3ccco3)N=C2SCC(=O)NC(C)(C)C)cc1Cl,–,inactive: -5.24%
CCc1ccc(-c2cc3c(=O)n(CC(=O)NCCCN4CCC(Cc5ccccc5)CC4)nc(C)n3n2)cc1,–,inactive: -0.899%
Cc1cccc(C(=O)Nc2cccc(OCc3cc(=O)n4cc(C)sc4n3)c2)c1,–,inactive: -0.377%
O=C(N/N=C/c1cn(Cc2cccc(F)c2)c2ccccc12)c1cc(O)cc(O)c1,"inconclusive: 11.2 µM [activator, single point]",–
CC(=O)Nc1ccc(OCCOc2ccc(/C=C3\C(=N)N4N=C(C)SC4=NC3=O)cc2)cc1,"inconclusive: 63.1 µM [activator, single point]",–
COc1cccc(/C=C/C(=O)OCC(=O)c2ccc[nH]2)c1,"inconclusive: 28.2 µM [activator, single point]",–
COc1cc(/C=C2\C(=O)N(c3ccccc3)N=C2C)ccc1Oc1ccc([N+](=O)[O-])cc1[N+](=O)[O-],"inconclusive: 50.1 µM [activator, single point]",–
Cn1cccc1C(=O)NCCc1ccc(Cl)cc1,"inconclusive: 17.8 µM [activator, single point]",–
N#CC1=C(N)Oc2n[nH]c(-c3cccs3)c2C1C1CCCCC1 (configuration not stated),"inconclusive: 50.1 µM [activator, single point]",–
Cc1cc(C)nc(NC(=O)CSc2nc3ccccc3o2)n1,"inconclusive: 12.6 µM [activator, partial curve, poor fit]",–

Structure (SMILES),Potency,activation
CN(CC(=O)Nc1cccc(F)c1)C(=O)CCc1nc2sc3c(c2c(=O)[nH]1)CCCC3,"inconclusive: 44.7 µM [activator, single point]",–
Cc1nc2ccc(NC(=O)COc3ccccc3)cc2s1,"inconclusive: 6.31 µM [activator, partial curve, poor fit]",–
CCOC(=O)C1=C(C)NC(=S)NC1c1ccc(-c2ccc(Cl)cc2)o1 (configuration not stated),–,inactive: -3.24%
Nn1c(SCc2ccccc2)nnc1C1CCCCC1,"inconclusive: 10 µM [activator, single point]",–
CCCn1c(Nc2nc3ccccc3n2C)nc2ccccc21,"inconclusive: 28.2 µM [activator, single point]",–
O=C(N/N=C/C=C\c1ccco1)c1cccnc1,"inconclusive: 56.2 µM [activator, single point]",–
COc1ccc(NC(=S)NC(NC(=O)CCl)C(Cl)(Cl)Cl)c([N+](=O)[O-])c1 (configuration not stated),"inconclusive: 44.7 µM [activator, single point]",–
COc1ccc(N(C)S(=O)(=O)c2ccc(C)cc2)c([N+](=O)[O-])c1,–,inactive: -6.3%
CC(C)(C)c1ccc(C(=O)CC(Sc2ccc(Cl)cc2)C(=O)O)cc1 (configuration not stated),"inconclusive: 12.6 µM [activator, single point]",–
CC(=O)N1c2c(cc(Br)cc2S(=O)(=O)NCC2COc3ccccc3O2)CC1C (configuration not stated),active: 39.8 µM,–
C[C@H](CO)N1C[C@H](C)[C@H](CN(C)C(=O)Nc2ccc(C(F)(F)F)cc2)Oc2c(NC(=O)c3ccncc3)cccc2C1=O,"inconclusive: 44.7 µM [activator, single point]",–
Cn1c(SCC(=O)N/N=C/c2ccc(O)c(O)c2)nc2ccccc21,"inconclusive: 12.6 µM [activator, partial curve, poor fit]",–
CC[C@]12c3[nH]c4cc(CCC(=O)N(C)C)ccc4c3CCN1C(=O)[C@@H](CC(=O)NCCc1ccccn1)C[C@@H]2C(=O)N1CCN(C(=O)C2CC2)CC1,"inconclusive: 50.1 µM [activator, single point]",–
COc1ccc(-c2cc(C(F)(F)F)nc(NC3CCCC3)n2)cc1OC,"inconclusive: 50.1 µM [activator, single point]",–
COC(=O)c1ccc(CSc2nnc(Nc3ccc(OC)cc3)s2)o1,"inconclusive: 12.6 µM [activator, single point]",–
O=C(NN1C(=O)c2ccccc2NC1c1ccc([N+](=O)[O-])o1)c1ccc(Br)cc1 (configuration not stated),"inconclusive: 50.1 µM [activator, single point]",–
Cc1ccc(NC(=O)c2ccc([N+](=O)[O-])o2)cc1C,"inconclusive: 14.1 µM [activator, single point]",–
O=C(OCC(=O)c1ccc(Br)s1)c1ccc(O)cc1,"inconclusive: 12.6 µM [activator, full curve, poor fit]",–
O=C(/C=C/c1ccccc1)c1ccc2c(c1)OCCCCO2,"inconclusive: 10 µM [activator, partial curve, poor fit]",–
Cc1ccc(Cn2ncc3c(NCCN(C)C)ncnc32)cc1,–,inactive: -4.22%
